From PubChem BioAssay AID1656 (Sanford-Burnham Center for Chemical Genomics, 2009)
The other results are listed elsewhere or left out. The main result of the screen is listed elsewhere. These columns were measured beside it and carry no call. Most of these compounds were active or inconclusive in the main read-out, so they are no random draw.

Experiment: inhibitors of hepatocyte lipid droplet formation, primary screen, imaging, high-throughput imaging, BODIPY stain (AID 1656);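 further: cells counted across two imaged fields per well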
Conditions: AML12 mouse hepatocytes, oleate lipid droplets, measured here: cell count, cytotoxicity flag, at 6.5 µM
Summary of the method: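 Technique: fluorescence imaging, 20x objective, two fields per well / Assay system: AML12 hepatocytes (mouse) / Measure: % inhibition of lipid droplet signal / Doses: 6.5 µM single-point dosing / Incubation: overnight exposure / Reagent: 100 µM oleic acid challenge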

| Compound | cell count |
| --- | --- |
| Cc1cc(C(=O)N[C@@H](c2ccccc2)[C@]2(C)C[C@H]2[C@@H](C)C(=O)Nc2ccc3ccccc3c2)no1 | 750 cells |
| COc1cc(CNC(=O)c2cccc(COc3ccc(Cl)cc3)c2)cc(OC)c1 | 709 cells |
| c1ccc2nc(N3CCN(Cc4ccc5c(c4)OCO5)CC3)cnc2c1 | 790 cells |
| CCCCOC(=O)c1ccc(NC(=O)/C=C/c2cccs2)cc1 | 624 cells |
| COc1cc2c(c(OC)c1OC)-c1ccc(OC)c(=O)cc1[C@@H](NC(C)=O)CC2 | 194 cells |
| Cc1ccc(-n2nc3c(c2NC(=O)CC(C)C)CS(=O)C3)cc1 (centres undefined) | 285 cells |
| COc1ccc(NC(=O)c2sccc2C)cn1 | 654 cells |
| COC(=O)COc1cccc(NC(=O)c2ccc(Cl)cc2)c1 | 657 cells |
| O=C(Nc1ccc([N+](=O)[O-])cc1)Nc1ccon1 | 299 cells |
| COc1ccc(N(C(=O)c2ccccc2C)S(=O)(=O)c2cccs2)cc1 | 221 cells |
| CCCCN(CCCNC(=O)Cn1nc(CC)n2c(cc3sc(C)cc32)c1=O)Cc1ccccc1 | 770 cells |
| CC(C)c1cc(C(=O)N2CCCC(CCC(=O)NCc3ccccc3F)C2)n(C)n1 (centres undefined) | 752 cells |
| COc1cc(C(=O)Nc2nc(-c3ccc(F)cc3)cs2)ccc1OCC(=O)N1CCOCC1 | 669 cells |
| CCOc1ccc(/C=N/Nc2ccc(C(F)(F)F)cc2[N+](=O)[O-])cc1O | 797 cells |
| COc1ccccc1NC(=O)C1CCN(C(=O)NCc2ccccc2)CC1 | 698 cells |
| COc1ccc(Br)cc1/C=C/C(=O)Nc1ccc2ccccc2c1 | 624 cells |
| CCOc1ccc(C(C)NC(=O)Cc2ccccc2)cc1OCC (centres undefined) | 610 cells |
| CCCOC(=O)c1[nH]c2c(c1C)C(=O)CC(c1cccs1)C2 (centres undefined) | 238 cells |
| C/C(=N\N=C(/N)c1nonc1N)c1ccc2c(c1)OCO2 | 771 cells |
| CCOc1ncccc1C(=O)N1CCN(c2cccc(C)c2C)CC1 | 142 cells |
| CCOc1cc2c(cc1OCC)C(c1ccccc1)N(c1ccccc1)C(=O)C2 (centres undefined) | 593 cells |
| Cc1ccc(-n2c(N)c(C(=O)Nc3c(C)n(C)n(-c4ccccc4)c3=O)c3nc4ccccc4nc32)cc1C | 598 cells |
| Nc1nc(-c2ccccc2)c(N=Nc2ccc(Cl)cc2)s1 | 590 cells |
| Cc1ccc(-c2c(C)nn3c(N4CCOCC4)cc(C)nc23)cc1 | 815 cells |
| CC(NC(=O)[C@@H](C)NC(=O)[C@@H]1Cc2ccccc2CN1C(=O)OC(C)(C)C)c1ccccc1 (some centres undefined) | 711 cells |

| Compound | cell count |
| --- | --- |
| Cc1[nH]c2ccccc2c1/C=N/Nc1nc(Nc2ccc(F)cc2)nc(N2CCOCC2)n1 | 362 cells |
| CCOc1ccc2c(c1)C(C)=CC(C)(C)N2S(=O)(=O)c1ccc(C)cc1 | 135 cells |
| CCOc1ccc2nc(-c3ccccc3)nc(SCC(=O)Nc3ncc(C)s3)c2c1 | 649 cells |
| COc1ccccc1CNC(=O)c1ccc2nc3[nH]c4ccccc4c3nc2c1 | 706 cells |
| Cc1ccc2[nH]c(C)c(CC(=O)NCc3ccccc3)c2c1 | 862 cells |
| CC(C)(C)c1ccc(-c2csc(NNC3=NCCCCC3)n2)cc1 | 738 cells |
| O=C(N/N=C/c1ccc([N+](=O)[O-])o1)c1cc(-c2ccc(-c3ccccc3)cc2)nc2ccccc12 | 30 cells |
| Cc1ccc(CNC(=O)c2ccc(N3CCC4(CC3)CC(c3ccccc3)=NO4)c(N)c2)cc1 | 776 cells |
| Cc1oc2c(cc(NS(=O)(=O)c3cccs3)c3ccccc32)c1C(=O)OC(C)C | 649 cells |
| COC(=O)/C(=C\c1ccc2c(c1)c1ccccc1n2C)NC(=O)c1ccccc1 | 671 cells |
| C=C(C)[C@@H]1CC[C@]2(C(=O)O)CC[C@]3(C)C(CCC4[C@@]5(C)CC[C@H](O)C(C)(C)C5CC[C@]43C)C12 (some centres undefined) | 858 cells |
| COc1cc2ncnc(NCc3cccc(Cl)c3)c2cc1OC | 402 cells |
| Cc1ccc(NC(=S)NNC(=S)Nc2ccc(C)cc2C)cc1 | 125 cells |
| CSC1=NC(C(Cl)(Cl)Cl)N=C(c2ccc(C)cc2)N1 (centres undefined) | 268 cells |
| O=[N+]([O-])c1ccc(/C=C/C2=NN(c3ccccc3)C(c3ccco3)C2)o1 (centres undefined) | 685 cells |
| CCOC(=O)c1[nH]c(C)c(C(=O)Nc2cc(Cl)ccc2C)c1C | 270 cells |
| COCCOC(=O)C1=C(C)NC(C)=C(C(=O)OC(C)C)C1c1cccc([N+](=O)[O-])c1 (centres undefined) | 266 cells |
| CCOc1ccccc1NC(=O)N1CCCC1C(=O)Nc1ccc(-n2cnnn2)c(C)c1 (centres undefined) | 807 cells |
| COc1ccccc1NC(=S)N(Cc1ccco1)Cc1cc2cc(C)c(C)cc2[nH]c1=O | 272 cells |
| CCOc1cc(C(=O)Nc2ccc(N3CCN(S(C)(=O)=O)CC3)cc2)cc(OCC)c1OCC | 743 cells |
| CCC(C)N(CC(=O)Nc1cccc(C)c1C)C(=O)CCl (centres undefined) | 140 cells |
| Cc1cc(O)c(C)c(O)c1/C=N/NC(=O)c1cccnc1 | 796 cells |
| COc1ccc(Nc2nc(-c3c(C)nc4ncccn34)cs2)cc1 | 223 cells |
| CC(C)Oc1ccc(C(=O)Nc2ccc(N3CCN(C(=O)c4ccco4)CC3)cc2)cc1 | 808 cells |
| O=[N+]([O-])c1cccc(Oc2cnccn2)c1 | 226 cells |

| Compound | cell count |
| --- | --- |
| O=C(Nc1ncc(Cc2ccc(SC(F)F)cc2)s1)c1ccc(OC(F)F)cc1 | 56 cells |
| CCO[C@H]1OC(C(=O)NCc2nc3ccccc3[nH]2)=C[C@@H](C2CC2)[C@@H]1CCCO | 272 cells |
| CCn1cc(C(=O)NCc2ccc(Cl)cc2)c(=O)c2cc(S(=O)(=O)N(C)C)ccc21 | 822 cells |
| CC(=O)Nc1ccc(-c2csc(NC(=O)Cc3cccc(F)c3)n2)cc1 | 737 cells |
| Cc1ccc(NC(=O)CN(C)CC(=O)Nc2ccc(N3CCOCC3)cc2)c(C)c1 | 521 cells |
| COc1ccccc1C1=NOC(COc2ccc3c(C)cc(=O)oc3c2)C1 (centres undefined) | 208 cells |
| COc1ccc(C(=O)OCC(=O)NC(C)CCc2ccccc2)cc1OC (centres undefined) | 808 cells |
| CCN(CC)c1ccc(NC(=O)c2ccc3c(c2)c(C)c(C)n3C)cc1 | 664 cells |
| CCCCCOC(=O)c1[nH]c2c(c1C)C(=O)CC(c1ccco1)C2 (centres undefined) | 135 cells |
| CS(=O)(=O)Nc1ccc(C(=O)Nc2ccccc2C(=O)NCc2ccco2)cc1 | 693 cells |
| Cc1cc(-n2cnnn2)cc(C)c1S(=O)(=O)NCCOc1ccccc1 | 634 cells |
| Cc1cc(C)c(C(=O)NC2CCCc3c2cnn3-c2cccc(C)c2C)o1 (centres undefined) | 710 cells |
| C=CCOc1ccc(-c2nc3c(c(=O)[nH]c(=O)n3Cc3ccccc3)n2CCCOC)cc1 | 742 cells |
| CCOc1ccccc1NC(=O)C1CCN(C(=O)NCc2ccccc2)CC1 | 769 cells |
| CCN1CCN(c2cc(C)c3cc(NC(=O)CCC(=O)Nc4ccc(OC)cc4OC)ccc3n2)CC1 | 809 cells |
| O=C(c1cc([N+](=O)[O-])ccc1N1CCOCC1)N1CCN(c2ccccc2)CC1 | 266 cells |
| CCOc1ccc(C(=O)OCC(=O)Nc2ccc(SC(F)F)cc2)cc1OCC | 670 cells |
| COc1cc(-c2c(-c3cc(OC)c(OC)c(OC)c3)noc2C)ccc1F | 291 cells |
| Cc1ccc(S(=O)(=O)NCc2ccc(C(=O)NC3CC3)cc2)cc1 | 736 cells |
| C=CCN(C(=O)c1csnn1)C(C(=O)NC1CCCCC1)c1ccccc1F (centres undefined) | 672 cells |
| COc1cccc(/C=N/N2CCN(C3c4ccccc4-c4ccccc43)CC2)c1O | 718 cells |
| CCN(CC)C(=O)CC(c1ccc(OC)cc1)c1c(OC)cc(OC)c2ccc(=O)oc12 (centres undefined) | 712 cells |
| Cc1cc(C)cc(NC(=O)N2CCC(C(=O)c3ccc(F)cc3)CC2)c1 | 700 cells |
| O=C(c1ccc(Cl)cc1)C1CCN(C(=O)NC2CCCCC2)CC1 | 659 cells |
| N#CC(c1ccc(Cl)cc1)c1ccc2c(C(F)(F)F)cc(C(F)(F)F)nc2n1 (centres undefined) | 530 cells |

| Compound | cell count |
| --- | --- |
| CCCCc1ccc(NC(=O)CSc2nnc(C)c(=O)n2N)cc1 | 842 cells |
| CCCCCC(O)(c1ccc(OCC)cc1)C(CN1CCOCC1)c1ccccc1 (centres undefined) | 822 cells |
| CCOc1ccc(CCNC(=O)COc2cc(=O)n(C)c3ccccc23)cc1OCC | 736 cells |
| O=C(CCNC(=O)C1CCN(S(=O)(=O)c2ccccc2)CC1)NCCc1cccc(F)c1 | 680 cells |
| CCOC(=O)C1CCC(CN(Cc2ccccc2)S(=O)(=O)c2ccc([N+](=O)[O-])cc2)CC1 (centres undefined) | 666 cells |
| O=C1c2ccccc2-c2onc3c(Oc4ccccc4)cc(O)c1c23 | 757 cells |
| O=C(Nc1nc(-c2cccs2)c(-c2cccs2)s1)C1CCCC1 | 610 cells |
| CCc1ccc(C(=O)CSc2nc3cc(S(=O)(=O)N4CCOCC4)ccc3n2CC)cc1 | 598 cells |
| COC(=O)c1ccccc1NC(=O)c1cccc(NC(=O)c2ccc(Br)o2)c1C | 729 cells |
| COc1ccc(C(C(=O)NC(C)(C)C)N(Cc2ccco2)C(=O)CCC(=O)Nc2cc(C)on2)cc1 (centres undefined) | 735 cells |
| COc1ccc(OC)c(NC(=O)c2cc3oc4ccccc4c3cc2O)c1 | 711 cells |
| C[C@H](NC(=O)[C@@H]1CSC2c3ccccc3C(=O)N21)C(=O)NCCc1ccc(F)cc1 (some centres undefined) | 213 cells |
| Cc1ccccc1OCCc1c(C)[nH]c(=S)[nH]c1=O | 261 cells |
| CCc1ccc(OCC(=O)N/N=C(\C)c2ccc(-n3ccnc3)cc2)cc1 | 725 cells |
| COc1cccc2sc(Nc3nc(-c4ccncc4)cs3)nc12 | 179 cells |
| CCOc1ccccc1Nc1nnc(SC(C)C(=O)Nc2nc(-c3ccccc3)cs2)s1 (centres undefined) | 626 cells |
| COC(=O)[C@H](Cc1c[nH]c2ccccc12)NC(=O)CCCc1c[nH]c2ccccc12 | 777 cells |
| CCOc1ccc(CCNC(=O)Cn2cccc2C(=O)c2ccccc2C)cc1OCC | 626 cells |
| O=C(/C=C/c1ccc(Cl)cc1)NC(=S)Nc1ccc(NC(=O)c2ccco2)cc1 | 649 cells |
| O=C(/C=C\c1ccco1)Nc1cc([N+](=O)[O-])ccc1F | 37 cells |
| Cc1c(S(=O)(=O)c2ccccn2)c(N)n(Cc2ccccc2)c1C | 752 cells |
| COc1cc(N2CCCC2)c(OC)cc1/C=C(/C#N)c1ccc(F)cc1 | 729 cells |
| COc1ccccc1NS(=O)(=O)c1cccc(-n2c(O)c(C=Nc3ccccc3C(=O)O)c3ccccc3c2=O)c1 | 690 cells |
| CCn1cc([N+](=O)[O-])c(C(=O)N2N=C(c3ccc4ccccc4c3)CC2c2ccccc2O)n1 (centres undefined) | 753 cells |
